From article PMC4336329 (PLoS ONE, 2015)
The whole screen tested about 310,000 compounds, of which about 14,000 (4.5%) showed an effect of 50% or more. Effects have a minus sign here. This is one part of the list.

Each molecule was assayed against human ether-à-go-go-related gene (hERG) potassium channel (human, UniProt Q12809) (assay: primary screen, population patch clamp on CHO cells stably expressing hERG).
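Note: peak tail current of the secondary pulse compared with the same well before compound.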

Sequence of human ether-à-go-go-related gene (hERG) potassium channel (Q12809 whole entry, looked up): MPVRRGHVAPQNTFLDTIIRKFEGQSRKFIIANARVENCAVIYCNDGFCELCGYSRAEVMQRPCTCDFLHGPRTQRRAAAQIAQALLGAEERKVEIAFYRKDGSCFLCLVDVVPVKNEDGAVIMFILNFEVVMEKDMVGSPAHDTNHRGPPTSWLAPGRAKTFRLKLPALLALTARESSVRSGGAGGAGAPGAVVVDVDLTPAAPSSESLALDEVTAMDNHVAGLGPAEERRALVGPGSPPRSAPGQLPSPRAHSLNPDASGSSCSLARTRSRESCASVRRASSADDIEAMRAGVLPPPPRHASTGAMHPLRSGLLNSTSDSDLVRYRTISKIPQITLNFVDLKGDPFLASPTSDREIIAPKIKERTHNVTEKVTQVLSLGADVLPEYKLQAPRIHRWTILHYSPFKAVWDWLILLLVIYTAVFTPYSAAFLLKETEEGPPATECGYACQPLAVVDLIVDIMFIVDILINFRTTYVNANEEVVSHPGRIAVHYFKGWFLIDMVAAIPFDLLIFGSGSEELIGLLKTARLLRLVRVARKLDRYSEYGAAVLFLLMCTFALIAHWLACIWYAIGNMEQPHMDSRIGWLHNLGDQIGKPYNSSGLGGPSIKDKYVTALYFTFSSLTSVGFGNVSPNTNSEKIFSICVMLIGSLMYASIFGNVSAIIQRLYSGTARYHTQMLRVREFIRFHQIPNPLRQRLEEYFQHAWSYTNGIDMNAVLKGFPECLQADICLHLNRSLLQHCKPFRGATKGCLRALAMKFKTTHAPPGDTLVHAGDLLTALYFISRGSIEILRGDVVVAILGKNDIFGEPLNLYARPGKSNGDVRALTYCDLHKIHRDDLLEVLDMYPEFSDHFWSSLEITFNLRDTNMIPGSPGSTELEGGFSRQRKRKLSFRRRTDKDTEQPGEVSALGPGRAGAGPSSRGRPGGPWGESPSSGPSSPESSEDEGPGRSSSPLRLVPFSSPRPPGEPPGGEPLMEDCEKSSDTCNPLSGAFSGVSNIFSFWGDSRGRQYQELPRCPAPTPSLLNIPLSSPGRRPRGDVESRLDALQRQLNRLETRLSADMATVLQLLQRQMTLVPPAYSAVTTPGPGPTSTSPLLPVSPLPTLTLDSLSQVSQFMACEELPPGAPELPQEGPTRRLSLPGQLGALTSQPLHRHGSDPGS

| Structure (SMILES) | hERG current change (%, negative = inhibition) at 10uM [%] |
| --- | --- |
| CCN(CC)S(=O)(=O)c1cccc(-c2n[nH]c(=S)n2/N=C/c2ccc(Br)cc2)c1 | 13 |
| O=C(O)c1ccccc1.OC(CNCC1CCCO1)Cn1c2ccc(Cl)cc2c2cc(Cl)ccc21 (stereo not drawn) | -40.7 |
| O=c1c2ccccc2nnn1CSc1nnc(-c2ccc3c(c2)OCO3)o1 | 5.15 |
| O=C(COc1ccccc1)NC(=S)Nc1cccc2cc(O)ccc12 | 12.8 |
| COc1ccc(N(C(=O)Cn2nnc3ccccc32)C(C(=O)NCc2ccco2)c2ccc(C)o2)cc1 (stereo not drawn) | -8.13 |
| CC(C)(C)OC(=O)NCCc1nnc(SCC(N)=O)o1 | 3.41 |
| CCCCNC(=O)Nc1cnn(CC)c1C(N)=O | -0.731 |
| COc1ccccc1CNC(=O)c1ccc2nc(N3CCOCC3)sc2c1 | -12.1 |
| CC1CCN(c2ccc(C=O)o2)CC1 | -10.3 |
| CC(/C=C1\SC(=S)N(CCCC(=O)Nc2ccc(C(=O)O)c(O)c2)C1=O)=C\c1ccccc1 | 7.47 |
| O=C(CCCCCn1c(=S)[nH]c2cc3c(cc2c1=O)OCO3)N1CCN(c2ccccc2)CC1 | 15.2 |
| CN(C)C(=O)CSc1nc2ccc(C(=O)c3ccccc3)cc2[nH]1 | -16.4 |
| CCCc1nn(C)c(C(=O)Nc2ccc(CC)cc2)c1Cl | 2.84 |
| Cc1c(C(=O)N2CCN(c3ccccc3)CC2)oc2c(Cl)cccc12 | 4.82 |
| COc1cccc(S(=O)(=O)N2CCN(Cc3ccc4c(c3)OCO4)CC2)c1 | -24.4 |
| COc1ccc2c(c1)C1=NN(/C(C)=C/C(C)=O)C(c3cccc(F)c3)C1CC2 (stereo not drawn) | -5.18 |
| Cc1c(Cc2ccccc2)c(=O)oc2cc(OC(=O)c3ccccc3)ccc12 | 15.8 |
| CC(NC(=O)Cn1c(NCCO)nc2ccccc21)C1CC2CCC1C2 (stereo not drawn) | 9.08 |
| COc1ccc(C(=O)NCc2nnc(SCC(=O)Nc3cc(Cl)ccc3OC)o2)cc1 | -42 |
| COc1cc(C(=O)Nc2ccc(NC(=O)C3CC3)nc2)cc(OC)c1OC | -3.02 |
| CN(C)C=NC(=O)/C(C#N)=C1\CCc2ccccc2N1 | -14.4 |
| Cl.N[C@@H](Cc1ccccc1)c1nnc(SCc2ccccc2Cl)o1 | -17.4 |

| Structure (SMILES) | hERG current change (%, negative = inhibition) at 10uM [%] |
| --- | --- |
| CCNc1nc(NCC)nc(Oc2ccc(C(=O)OC)cc2)n1 | -5.78 |
| CC1CN(Cc2cc(=O)oc3cc(O)ccc23)CC(C)O1 (stereo not drawn) | -23.3 |
| Cc1cc(C)cc(CSc2nnc(C)c(=O)[nH]2)c1 | -7.36 |
| Cc1cc(N2C(=O)C3C4CC(C(Br)C4Br)C3C2=O)no1 (stereo not drawn) | 32.7 |
| O=C(Nc1ccc2c(c1)OCO2)c1c(F)c(F)c(F)c(F)c1F | -0.0939 |
| O=C(NCCN1CCN(C(=O)Nc2ccccc2)CC1)Nc1ccccc1 | -0.332 |
| COc1ccc(-c2cc(C)no2)cc1S(=O)(=O)NCc1cccc(C)c1 | -41.5 |
| COCCc1ccc(OCC(O)CNC(C)C)cc1.O=C(O)[C@H](O)[C@@H](O)C(=O)O (stereo not drawn) | -1.76 |
| CC(Oc1cc2oc(=O)c3c(c2cc1Cl)CCC3)C(=O)NCCCN1CCCC1=O (stereo not drawn) | -49.7 |
| CC(=O)N1c2ccc(S(=O)(=O)N3CCC(C(=O)N4CCN(c5cc(Cl)ccc5C)CC4)CC3)cc2CC1C (stereo not drawn) | -7.33 |
| Cc1ccc2cc(CCNC(=O)C3CCCC3)c(=O)[nH]c2c1 | 6.03 |
| CC(O)CCC(=O)NNC1=CC(=O)CC(C)(C)C1 (stereo not drawn) | 5.62 |
| COC1(c2ccccc2)NC(=S)NN=C1c1ccccc1 (stereo not drawn) | 13.1 |
| Cc1ccccc1NC(=O)COc1ccc(Br)cc1C | 22.4 |
| CC12CCC(CC1=O)C2(C)C (stereo not drawn) | 8.29 |
| O=C(CS(=O)(=O)c1ccc(F)cc1)Nc1nccs1 | 9.06 |
| O=C(CSc1n[nH]c(=O)[nH]c1=O)NC1CC1 | 16.5 |
| COc1ccc(C2/C(=C(/O)c3ccc(S(=O)(=O)N4CCOCC4)cc3)C(=O)C(=O)N2CCN2CCOCC2)cc1 (stereo not drawn) | 6.11 |
| CCCNC(=O)c1cc(Cl)c(NC(=O)C2=C(C)OCCS2)cc1OC | -14.5 |
| COc1cc(C(O)c2nc3ccccc3s2)cc(OC)c1OC (stereo not drawn) | 8.99 |
| Cc1ccc(CSc2nc3c(cc2C#N)CCC3)cc1 | 0.0972 |
| O=C(CSc1nnc(-c2ccco2)o1)NC(=O)Cc1ccccc1 | -5.31 |

| Structure (SMILES) | hERG current change (%, negative = inhibition) at 10uM [%] |
| --- | --- |
| COCCCNC(=S)N1CCN(c2nc(C)nc3sc4c(c23)CCCC4)CC1 | -34.4 |
| CCOC(=O)CCCCC(=O)c1[nH]c(=O)[nH]c1Cn1ccnc1 | 8 |
| CS(=O)(=O)N(CC(=O)NCc1ccco1)c1cc(C(F)(F)F)ccc1Cl | -9.85 |
| COc1ccc(Cl)cc1S(=O)(=O)N1CCCc2ccccc21 | -9.71 |
| Cc1cc2ccccc2n1CCNC(=O)c1cccs1 | -0.757 |
| COc1ccc(N2CCN(Cc3nc(-c4ccc(Cl)cc4Cl)no3)CC2)cc1 | -1.91 |
| O=C(NCc1ccco1)C(c1ccccc1)N(Cc1ccccc1)C(=O)Cn1nnc2ccccc21 (stereo not drawn) | 10.6 |
| CN1CCN(C(CNS(=O)(=O)c2ccc([N+](=O)[O-])cc2)c2ccc(F)cc2)CC1 (stereo not drawn) | -67.6 |
| COc1ccc(C(=O)NNC(=O)C(=O)Nc2cccc3ccccc23)cc1 | 13.2 |
| Cc1ccc(C(=O)/C=C/c2ccccc2)o1 | 2.45 |
| O=C(O)c1[nH]c2ccccc2c1C(c1c(F)cccc1Cl)c1c(C(=O)O)[nH]c2ccccc12 | 18.2 |
| O=C(NCCC1CCCCN1S(=O)(=O)c1ccccc1)C(=O)NCc1ccncc1 (stereo not drawn) | -2.1 |
| CCCCCn1c(SCCN2CCOCC2)nc2c1c(=O)[nH]c(=O)n2C | -66.5 |
| O=C(COC(=O)c1nc(Cl)c(Cl)c(Cl)c1Cl)NCc1ccccc1 | 0.12 |
| CCOCC(=O)Nc1ccc(OCc2ccccc2)cc1 | 0.919 |
| COc1ccc2[nH]c(C)c(CCNC(=S)Nc3ccc(F)cc3)c2c1 | -12.1 |
| COc1ccc(C)cc1S(=O)(=O)N(CC(=O)O)c1ccc(C)cc1 | 5.39 |
| CCOC(=O)c1cccc(C2=CC(=O)C[C@H](c3ccc(OC)cc3)C2)c1 | -8.47 |
| CC(C)Oc1cccc(C(=O)Nc2ccc(N3CCN(S(C)(=O)=O)CC3)cc2)c1 | -0.708 |
| CCOC(=O)c1c(/N=C/N(C)C)sc(/C=N/Nc2ccccc2)c1-c1ccc(Cl)cc1 | 23.8 |
| COc1ccc(/C=C2/NC(=O)N(Cc3ccccc3F)C2=O)cc1OC | 3.22 |
| O=C(NCCN1CCOCC1)c1cc(-c2ccc(F)cc2)on1 | -13.9 |

| Structure (SMILES) | hERG current change (%, negative = inhibition) at 10uM [%] |
| --- | --- |
| Cc1ccc(-c2ccc(/C=N/NC(=S)Nc3ccccc3)o2)cc1[N+](=O)[O-] | 12.7 |
| Cc1cc(C)n(-c2nc3ccccc3nc2N2CCC(C)CC2)n1 | -16.1 |
| Cc1cc(C)n(-c2ccc(OCC(=O)O)nn2)n1 | 2 |
| COC(=O)c1ccccc1NC(=O)CN1CCC(C)CC1 | 9.3 |
| C#CCNC(=O)C1=C[C@H](c2ccc(Br)cc2)C[C@H](OCc2ccc(CO)cc2)O1 | -18.6 |
| CC(=O)Nc1ccc(Nc2cc(C)nc(Nc3ccc(NC(C)=O)cc3)n2)cc1 | 11.3 |
| O=C1NC(=O)N(CCc2ccc(F)cc2)C(=O)/C1=C/c1cccs1 | 16.1 |
| Cc1ccc(S(=O)(=O)N2CCOCC2)cc1NC(=O)CNC1CCCC1.O=C(O)C(=O)O | 5.67 |
| CCOC(=O)Cc1csc(NC(=O)C(C)c2ccc([N+](=O)[O-])cc2)n1 (stereo not drawn) | -55.9 |
| COc1ccccc1OC(=O)c1ccc2nsnc2c1 | 8.28 |
| CCOC(=O)c1cnc2ccc(C(=O)OC)cc2c1Nc1ccc(C(=O)O)cc1.Cl | 5.66 |
| O=C(O)c1nnn(-c2ccc([N+](=O)[O-])cc2)c1-c1ccccc1 | -4.49 |
| Cc1cc(=O)oc2c3c(cc(OCC(=O)Nc4ccc(CCO)cc4)c12)OC(C)(C)CC3 | 0.169 |
| CCn1c(=O)c2c(nc3n2CCCN3CCc2ccc(OC)c(OC)c2)n(C)c1=O | -5.18 |
| CCC(=O)Nc1cccc(-n2nnnc2SCC(=O)NCc2ccco2)c1 | 0.69 |
| COCCn1nnnc1C(c1ccc(OC)cc1)N1CCN(C(=O)c2ccco2)CC1.Cl (stereo not drawn) | -4.77 |
| CCCCSc1nc2sc3c(c2c(=O)n1-c1ccc(C)cc1)CCN(C)C3 | -4.38 |
| Cc1ccc(S(=O)(=O)N2CCN(C(=O)c3cc(C4CC4)nc4c3cnn4C(C)C)CC2)cc1 | 3.85 |
| C=CCNC(=O)c1ccccc1NC(=O)C1COc2ccccc2O1 (stereo not drawn) | 4.92 |
| O=C(Nc1ccccc1)C1CCCCC1 | -1.86 |
| O=C(CSc1nnnn1C1CCCC1)NCc1cccs1 | 23.4 |
